{"source": "the supplement of paper PMC8728848", "binders": {"B1": {"name": "LgFlo1 (Saccharomyces pastorianus), B3IUA8 (protein)", "chain": "SGSTQACLPVGSRKNGMNVNFYKYSLQDSTTYSDPQYMAYKYSDTKKLGSVSGQTHLSIYYGPNTAFWNTASWSSDLFGFYTTPTNVTVEMTGYFLPPQTGSYTFKFATVDDSAILSVGGSIAFECCAQEQPPITSTDFTINGIKPWDAATPTDIKGSTYMYAGYYYPIKIVYSNAKALARLPVSVVLPDGTEVNDDFEGYVYSFDDDLSQSNCTIPDPSKHTTS"}}, "experiment_in_all_cases": "glycan array binding signal (z-score within array); higher = stronger binding", "details_in_all_cases": "glycan notation: IUPAC condensed, linker removed", "key": {"[1]": {"molecular_target": "Fuc(a1-2)Gal", "summary_of_the_method": "(§1)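 Negative Z-scores can be read as non-binding. The Z-score is calculated within each array and then averaged across arrays of one protein sequence at different concentrations or buffers and across linkers. Arrays, 3228 in all, were curated from the Consortium for Functional Glycomics database and kept only where the protein sequence was available.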"}, "[2]": {"molecular_target": "Fuc(a1-2)Gal(b1-3)GalNAc", "summary_of_the_method": "as §1"}, "[3]": {"molecular_target": "Fuc(a1-2)Gal(b1-3)GalNAc(a1-3)[Fuc(a1-2)]Gal(b1-4)Glc", "summary_of_the_method": "as §1"}, "[4]": {"molecular_target": "Fuc(a1-2)Gal(b1-3)GalNAc(a1-3)[Fuc(a1-2)]Gal(b1-4)GlcNAc", "summary_of_the_method": "as §1"}, "[5]": {"molecular_target": "Fuc(a1-2)Gal(b1-3)GalNAc(b1-3)Gal", "summary_of_the_method": "as §1"}, "[6]": {"molecular_target": "Fuc(a1-2)Gal(b1-3)GalNAc(b1-3)Gal(a1-4)Gal(b1-4)Glc", "summary_of_the_method": "as §1"}, "[7]": {"molecular_target": "Fuc(a1-2)Gal(b1-3)GalNAc(b1-4)[Neu5Ac(a2-3)]Gal(b1-4)Glc", "summary_of_the_method": "as §1"}, "[8]": {"molecular_target": "Fuc(a1-2)Gal(b1-3)GlcNAc", "summary_of_the_method": "as §1"}, "[9]": {"molecular_target": "Fuc(a1-2)Gal(b1-3)GlcNAc(b1-2)Man(a1-3)[Fuc(a1-2)Gal(b1-3)GlcNAc(b1-2)Man(a1-6)]Man(b1-4)GlcNAc(b1-4)GlcNAc", "summary_of_the_method": "as §1"}, "[10]": {"molecular_target": "Fuc(a1-2)Gal(b1-3)GlcNAc(b1-2)Man(a1-3)[Fuc(a1-2)Gal(b1-3)GlcNAc(b1-2)Man(a1-6)]Man(b1-4)GlcNAc(b1-4)[Fuc(a1-6)]GlcNAc", "summary_of_the_method": "as §1"}, "[11]": {"molecular_target": "Fuc(a1-2)Gal(b1-3)GlcNAc(b1-3)Gal(b1-4)Glc", "summary_of_the_method": "as §1"}, "[12]": {"molecular_target": "Fuc(a1-2)Gal(b1-3)GlcNAc(b1-3)GalNAc", "summary_of_the_method": "as §1"}, "[13]": {"molecular_target": "Fuc(a1-2)Gal(b1-3)GlcNAc(b1-3)[Fuc(a1-2)Gal(b1-3)GlcNAc(b1-6)]GalNAc", "summary_of_the_method": "as §1"}, "[14]": {"molecular_target": "Fuc(a1-2)Gal(b1-3)GlcNAc(b1-3)[Gal(b1-4)GlcNAc(b1-6)]Gal(b1-4)Glc", "summary_of_the_method": "as §1"}, "[15]": {"molecular_target": "Fuc(a1-2)Gal(b1-3)GlcNAc(b1-3)[Neu5Ac(a2-6)Gal(b1-4)GlcNAc(b1-6)]Gal(b1-4)Glc", "summary_of_the_method": "as §1"}, "[16]": {"molecular_target": "Fuc(a1-2)Gal(b1-3)GlcNAc6S", "summary_of_the_method": "as §1"}, "[17]": {"molecular_target": "Fuc(a1-2)Gal(b1-3)[Fuc(a1-4)]GlcNAc", "summary_of_the_method": "as §1"}, "[18]": {"molecular_target": "Fuc(a1-2)Gal(b1-3)[Fuc(a1-4)]GlcNAc(b1-2)Man(a1-3)[Fuc(a1-2)Gal(b1-3)[Fuc(a1-4)]GlcNAc(b1-2)Man(a1-3)]Man(b1-4)GlcNAc(b1-4)GlcNAc", "summary_of_the_method": "as §1"}, "[19]": {"molecular_target": "Fuc(a1-2)Gal(b1-3)[Fuc(a1-4)]GlcNAc(b1-2)Man(a1-3)[Fuc(a1-2)Gal(b1-3)[Fuc(a1-4)]GlcNAc(b1-2)Man(a1-6)]Man(b1-4)GlcNAc(b1-4)[Fuc(a1-6)]GlcNAc(b1-4)[Fuc(a1-6)]GlcNAc", "summary_of_the_method": "as §1"}, "[20]": {"molecular_target": "Fuc(a1-2)Gal(b1-3)[Fuc(a1-4)]GlcNAc(b1-3)[Fuc(a1-3)[Gal(b1-4)]GlcNAc(b1-6)]Gal(b1-4)Glc", "summary_of_the_method": "as §1"}, "[21]": {"molecular_target": "Fuc(a1-2)Gal(b1-3)[Fuc(a1-4)]GlcNAc(b1-3)[Gal(b1-4)GlcNAc(b1-6)]Gal(b1-4)Glc", "summary_of_the_method": "as §1"}, "[22]": {"molecular_target": "Fuc(a1-2)Gal(b1-4)Fuc(a1-3)]GlcNAc(b1-2)Man(a1-3)[Fuc(a1-2)Gal(b1-4)[Fuc(a1-3)]GlcNAc(b1-2)Man(a1-6)]Man(b1-4)GlcNAc(b1-4)GlcNAc", "summary_of_the_method": "as §1"}, "[23]": {"molecular_target": "Fuc(a1-2)Gal(b1-4)Glc", "summary_of_the_method": "as §1"}, "[24]": {"molecular_target": "Fuc(a1-2)Gal(b1-4)Glc6S", "summary_of_the_method": "as §1"}, "[25]": {"molecular_target": "Fuc(a1-2)Gal(b1-4)GlcNAc", "summary_of_the_method": "as §1"}, "[26]": {"molecular_target": "Fuc(a1-2)Gal(b1-4)GlcNAc(b1-2)Man", "summary_of_the_method": "as §1"}, "[27]": {"molecular_target": "Fuc(a1-2)Gal(b1-4)GlcNAc(b1-2)Man(a1-3)[Fuc(a1-2)Gal(b1-4)GlcNAc(b1-2)Man(a1-6)]Man(b1-4)GlcNAc(b1-4)GlcNAc", "summary_of_the_method": "as §1"}, "[28]": {"molecular_target": "Fuc(a1-2)Gal(b1-4)GlcNAc(b1-2)Man(a1-3)[Fuc(a1-2)Gal(b1-4)GlcNAc(b1-2)Man(a1-6)]Man(b1-4)GlcNAc(b1-4)[Fuc(a1-6)]GlcNAc", "summary_of_the_method": "as §1"}, "[29]": {"molecular_target": "Fuc(a1-2)Gal(b1-4)GlcNAc(b1-2)[Fuc(a1-2)Gal(b1-4)GlcNAc(b1-4)]Man(a1-3)[Fuc(a1-2)Gal(b1-4)GlcNAc(b1-2)Man(a1-6)]Man(b1-4)GlcNAc(b1-4)GlcNAc", "summary_of_the_method": "as §1"}, "[30]": {"molecular_target": "Fuc(a1-2)Gal(b1-4)GlcNAc(b1-3)Gal(b1-4)GlcNAc", "summary_of_the_method": "as §1"}}, "note": "The list shows a part of the results.", "data": [{"binder": "B1", "values": [{"measurement": "glycan array binding signal (z-score)", "setting": "[1]", "result": -0.217}, {"measurement": "glycan array binding signal (z-score)", "setting": "[2]", "result": -0.337}, {"measurement": "glycan array binding signal (z-score)", "setting": "[3]", "result": 0.192}, {"measurement": "glycan array binding signal (z-score)", "setting": "[4]", "result": -0.253}, {"measurement": "glycan array binding signal (z-score)", "setting": "[5]", "result": -0.431}, {"measurement": "glycan array binding signal (z-score)", "setting": "[6]", "result": -0.346}, {"measurement": "glycan array binding signal (z-score)", "setting": "[7]", "result": -0.164}, {"measurement": "glycan array binding signal (z-score)", "setting": "[8]", "result": -0.247}, {"measurement": "glycan array binding signal (z-score)", "setting": "[9]", "result": 2.1}, {"measurement": "glycan array binding signal (z-score)", "setting": "[10]", "result": 3.52}, {"measurement": "glycan array binding signal (z-score)", "setting": "[11]", "result": 0.983}, {"measurement": "glycan array binding signal (z-score)", "setting": "[12]", "result": -0.113}, {"measurement": "glycan array binding signal (z-score)", "setting": "[13]", "result": -0.108}, {"measurement": "glycan array binding signal (z-score)", "setting": "[14]", "result": 0.26}, {"measurement": "glycan array binding signal (z-score)", "setting": "[15]", "result": 0.445}, {"measurement": "glycan array binding signal (z-score)", "setting": "[16]", "result": -0.336}, {"measurement": "glycan array binding signal (z-score)", "setting": "[17]", "result": -0.312}, {"measurement": "glycan array binding signal (z-score)", "setting": "[18]", "result": 0.923}, {"measurement": "glycan array binding signal (z-score)", "setting": "[19]", "result": 0.604}, {"measurement": "glycan array binding signal (z-score)", "setting": "[20]", "result": -0.235}, {"measurement": "glycan array binding signal (z-score)", "setting": "[21]", "result": -0.051}, {"measurement": "glycan array binding signal (z-score)", "setting": "[22]", "result": 4.98}, {"measurement": "glycan array binding signal (z-score)", "setting": "[23]", "result": -0.137}, {"measurement": "glycan array binding signal (z-score)", "setting": "[24]", "result": -0.286}, {"measurement": "glycan array binding signal (z-score)", "setting": "[25]", "result": -0.338}, {"measurement": "glycan array binding signal (z-score)", "setting": "[26]", "result": -0.253}, {"measurement": "glycan array binding signal (z-score)", "setting": "[27]", "result": 0.925}, {"measurement": "glycan array binding signal (z-score)", "setting": "[28]", "result": 0.313}, {"measurement": "glycan array binding signal (z-score)", "setting": "[29]", "result": -0.119}, {"measurement": "glycan array binding signal (z-score)", "setting": "[30]", "result": -0.363}]}]}
